# Measured values: PubChem BioAssay (EPA / NIEHS)
# Inconclusive results, whose numbers are uncertain, are shown with a selection of clear calls. Where the call is inconclusive, the potency comes from a doubtful curve fit. The source made the active and inactive calls. How the source made its calls: active means hit-call score of the fitted dose curve at least 0.9, where 1 is the maximum; inconclusive means response in the unintended direction; inactive means score below 0.9.
# Read-out: Glyceraldehyde-3-phosphate dehydrogenase (Homo sapiens) (UniProt P04406)
# Sequence of UniProt P04406 (P04406 whole entry, looked up): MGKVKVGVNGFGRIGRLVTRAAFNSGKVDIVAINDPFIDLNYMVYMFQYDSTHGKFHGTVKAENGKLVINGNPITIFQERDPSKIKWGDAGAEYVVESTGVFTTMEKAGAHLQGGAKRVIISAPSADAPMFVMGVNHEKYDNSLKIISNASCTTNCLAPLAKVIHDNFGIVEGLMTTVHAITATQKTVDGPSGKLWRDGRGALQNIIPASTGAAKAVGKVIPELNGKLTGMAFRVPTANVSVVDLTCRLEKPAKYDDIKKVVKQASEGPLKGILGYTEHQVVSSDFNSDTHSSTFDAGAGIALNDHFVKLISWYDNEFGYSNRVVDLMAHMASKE
# Experiment: CLD_GAPDH_24hr: CellzDirect (CLD) Gene Expression Assay for Baseline Control (Glyceraldehyde 3-phosphate dehydrogenase) at 24 hours (AID 2283692)
# Protocol: CLD_24hr is a cell-based, multiplexed-readout assay that uses hepatocyte, a human liver primary cell, with measurements taken at 24 hours after chemical dosing in a 96-well plate.CLD_GAPDH_24hr is one of 16 assay component(s) measured or calculated from the CLD_24hr assay. It is designed to make measurements of mRNA induction, a form of inducible reporter, as detected with chemiluminescence signals by Quantitative Nuclease Protection Assay (qNPA) technology.Data from the assay component CLD_GAPDH_24hr was analyzed at the endpoint, CLD_GAPDH_24hr, in the positive analysis fitting direction relative to DMSO as the negative control and baseline of activity. Using a type of inducible reporter, gain-of-signal activity can be used to understand changes in the reporter gene as they relate to the gene GAPDH. Furthermore, this assay endpoint can be referred to as a secondary readout, because this assay has produced multiple assay endpoints where this one serves a background control function. To generalize the intended target to other relatable targets, this assay endpoint is annotated to the background measurement intended target family, where subfamily is baseline control.
# Human hepatocyte cultures were treated daily for two consecutive days with fresh dosing solutions containing appropriate concentrations of the 320 ToxCast chemicals (chemical identities were blinded to CellzDirect and other ToxCast collaborators), vehicle control (0.2% DMSO), and positive control inducers as summarized in Table 1. Due to the large number of treatment groups and chemicals examined, the ToxCast chemicals were divided into two groups (spanning two independent cultures of hepatocytes from separate donor preparations (Hu778: ToxCast plates 1 and 2; Hu776: ToxCast plates 3 and 4). Each preparation of human hepatocyte cultures was treated with respective vehicle control, medium only control, set of six positive controls/reference chemicals for the five hepatic receptor pathways, and a subset of eight of the ToxCast chemicals (indoxacarb, pyrithiobac-sodium, norflurazon, cyhalofop-butyl, methomyl, thiram, acetochlor, and propiconazole). These replicate data, coupled with internal replicates designed within the blinded ToxCast chemical library, provided additional data to evaluate interindividual differences between hepatocyte preparations and their potential impact on chemical profiles.Cell morphology and integrity were evaluated using phase-contrast microscopy as an indicator of hepatocyte cell health (Tyson & Green, 1987). Cultures for each treatment group (i.e., media, vehicle [0.2% DMSO], positive control inducers [multiple concentrations], and the ToxCast chemicals [multiple concentrations]) were observed and cell morphology was assessed relative to vehicle control cultures at each harvest time point (0, 6, 24, or 48 h). […] Images were evaluated at the conclusion of the study to assess changes in cell integrity and account for the effects of chemical exposure on uncharacteristic changes in concentration-dependent gene expression profiles. The results from these determinations of apparent cytotoxicity were annotated (yes/no) alongside the corresponding qNPA data for reference.At the conclusion of each treatment period, hepatocyte cultures (96-well) were washed with 1 volume of HBSS, lysed by addition of 25 ul ArrayPlate lysis buffer (HTG, Tucson, AZ), and 70 ul/well of Denaturation Oil, denatured by incubation at 95C for 10 min, and frozen at approximately -70C until analysis by nuclease protection assay (qNPA) (Roberts et al., 2007). For qNPA analysis, cell lysates were thawed at 50C for approximately 30 min, qNPA probes were added, and samples were incubated at 95C for 10 min to begin the detection process by denaturing the target RNA, dissociating the duplexes and secondary structure hybridization. At the conclusion of the hybridization period, S1 nuclease reagent was added to each sample to digest all nonprotected nucleotides at 50C for 60-90 min. […]
Compound,outcome,AC50
S=C([S-])NCCNC(=S)[S-].[Mn+2],inactive,
CCCCOCCOCCOCc1cc2c(cc1CCC)OCO2,,inconclusive: 3.97 µM
S=C(S)NCCNC(=S)S.[Mn+2].[S-]C([S-])=NCCN=C([S-])[S-].[Zn+2],inactive,
CCCCC(CC)COC(=O)c1ccccc1C(=O)O (stereo unspecified),inactive,
CC(C)(C)[C@@H](O)[C@@H](Cc1ccc(Cl)cc1)n1cncn1,inactive,
COc1c(Cl)ccc(Cl)c1C(=O)O,,inconclusive: 20 µM
CCOC(=O)NCCOc1ccc(Oc2ccccc2)cc1,,inconclusive: 3.97 µM
CCCN(CCC)c1c([N+](=O)[O-])cc(C(F)(F)F)c(N)c1[N+](=O)[O-],,inconclusive: 20 µM
c1ccc(Nc2ccccc2)cc1,,inconclusive: 20 µM
CCOC(=O)[C@H](C)Oc1ccc(Oc2nc3ccc(Cl)cc3o2)cc1,inactive,
CCCCCCC(C)OC(=O)COc1nc(F)c(Cl)c(N)c1Cl (stereo unspecified),inactive,
